This note sets out measurements from patent US20040096845A1, “Peritoneal dialysates” (priority 2000, published 2004).

Where a name gives a salt, the structure may show the parent alone.

The test system of assay [1] is human serum albumin. In words: Suppression of methylglyoxal-induced cross linking of human serum albumin, by fluorescent intensity. It is filed as biochemical. As to the method:
For estimating the suppression effect on protein cross linking sensitively, glyoxal was used. This chemical is one of glucose degradation products and much greater promoter to accelerate AGE formation than glucose does. […] As a test specimen, mercapto compound, listed in Table 1, was added into the solution at 20 mM/l, then incubated at 37° C. as long as for two weeks. Fluorescent intensity (FI) of the cross linked albumin in the incubated solution was determined at 440 nm (excitation: at 370 nm) by fluorescence meter (Nihon Bunkou Co.). The suppression effect was estimated as follows; dividing the increase in the fluorescent intensity through the incubation in the case of “test specimen added”, by that of “no test specimen added (control 1) ”.
Sodium bisulfite and sodium sulfite were tested as protein cross linking suppressors.
(§1) The increase in fluorescent intensity was determined to estimate relative ratio to those of Control 2.
as §1, §1, §1
Each compound was dissolved at the concentration of 20 mM/l respectively in the mixture of dimethylsulfoxide and phosphate buffer solution at the ratio of 1:3. The increase in fluorescent intensity was determined to estimate relative ratio to those of Control 2.

The target in assay [2] is human serum albumin (Homo sapiens, UniProt P02768). As to conditions: Table 5, Example 11.
The mark [3] stands for this setting: methylglyoxal, suppressor dissolved in dimethylsulfoxide : phosphate buffer solution 1:3, relative to Control 2 = 100.
Setting [4] is: methylglyoxal in place of glyoxal, phosphate buffer solution, conditions as Example 1, relative to Control 2 = 100.

With `SC1=NCCS1` [2-Mercaptothiazoline], in the assay with human serum albumin [1] (setting [3]), the “Increase in FI (%)” value stood at 48%. On the same count and under the same terms, with `O=C1NC(C(=O)O)CS1` (stereo not shown) [2-Oxo-thiazolidine-4-carboxylic acid] the figure was 8%.

As for `CC(=O)Oc1ccccc1C(=O)O` [Acetyl salicylic acid, reference compound], the “Increase in FI (%)” value with human serum albumin [1] (setting [4]) came out at 53%. With `N=C(N)NN` [Amino guanidine hydrochloride, reference compound], the “Increase in FI (%)” value in the assay with human serum albumin [1] (setting [4]) came to 31%.

In the case of `O=C(C[n+]1ccsc1)c1ccccc1.[Br-]` [N-Phenacyl thiazolium bromide, reference compound], the “Increase in FI (%)” value with human serum albumin [1] (methylglyoxal, suppressor 20 mM/l in methanol : phosphate buffer solution 1:1, relative to Control 2 = 100) stood at 28%. For the same compound, the “Splitting of cross linkage in albumin formed by 3-deoxyglucosone (in words)” value on human serum albumin [2] is “split”. Take Heparin [reference compound]: the “Increase in FI (%)” value in the assay with human serum albumin [1] (setting [4]) is on record as 96%.
